Results as given in PubChem BioAssay AID743262 (National Center for Advancing Translational Sciences (NCATS), 2014).
The whole screen tested about 1,300 compounds, of which about 25 (2%) were called active. Roughly 9% stayed inconclusive and do not appear here. The call rests on the fitted dose curve; in most records, active means well fitted activation curve with a large enough effect; inconclusive means small, poorly fitted or top-dose-only effect; inactive means flat fitted curve, though single readings scatter. Some of the results follow.

The molecules below were run against Glucagon-like peptide 1 receptor (Homo sapiens) (UniProt P43220) (assay: qHTS of GLP-1 Receptor Agonists: Hit Validation). Conditions: HEK293 GLP-1R, cAMP-response luciferase, 4-6 h; series mostly up to 46.1 µM; activation: at the top concentration.
Summary of the method: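 Luminescence from a cAMP-responsive luciferase reporter was read 12 min after detection reagent at RT. Before that, HEK293 cells stably expressing GLP-1R plus reporter, seeded 12 h earlier, were exposed to compound for 4-6 hr at 37 deg C.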
Further: % of control where 0% means no effect.

Chain of UniProt P43220 (P43220 whole entry, looked up): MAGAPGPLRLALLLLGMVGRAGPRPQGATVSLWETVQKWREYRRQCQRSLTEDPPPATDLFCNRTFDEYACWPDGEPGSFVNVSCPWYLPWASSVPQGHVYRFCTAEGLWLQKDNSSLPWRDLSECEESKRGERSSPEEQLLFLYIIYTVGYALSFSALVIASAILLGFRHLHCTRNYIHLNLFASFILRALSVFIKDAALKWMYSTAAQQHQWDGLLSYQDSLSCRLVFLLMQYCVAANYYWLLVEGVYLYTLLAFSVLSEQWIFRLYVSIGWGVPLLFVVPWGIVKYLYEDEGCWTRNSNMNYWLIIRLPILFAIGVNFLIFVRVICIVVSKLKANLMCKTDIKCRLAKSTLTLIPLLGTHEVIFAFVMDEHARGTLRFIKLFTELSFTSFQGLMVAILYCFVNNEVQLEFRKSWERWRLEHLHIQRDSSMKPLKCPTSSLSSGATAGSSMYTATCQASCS

activation, inactive:
CCc1ccc(CNc2ccc3c(c2)ncn3C(C)(C)C)cc1 5.3%, O=C(c1ccc(Br)o1)N(Cc1ccccc1)c1ccccn1 -0.613%, COc1ccc(-c2csc(C(C)(NC(C)=O)c3ccccc3)n2)cc1 (centres undefined) 5.87%, COc1cc(-c2nnc(SCc3ccccc3Cl)o2)cc(OC)c1OC 19.3%, COc1ccc(C2CC(c3cccs3)=NN2C(=O)COC(=O)c2cncc(Br)c2)cc1OC (centres undefined) 4.58%, COC(=O)c1ccc(CSc2nc(N)cc(N)n2)cc1 1.81%, COc1ccc(-c2csc(Cc3nnc(N4CCOCC4)n3-c3ccccc3)n2)cc1OC 0.371%, CCCCCCCSc1ncnc2[nH]ncc12 13.5%, OCCN(CCO)c1nc(N2CCCCC2)c2nc(N(CCO)CCO)nc(N3CCCCC3)c2n1 2.79%, Cc1nc(SC(C)C(=O)c2c(N)n(C)c(=O)n(C)c2=O)c2c(C)c(C)sc2n1 (centres undefined) 21.7%, C[C@]12CC[C@@H]3c4ccc(OC(=O)c5ccccc5)cc4CC[C@H]3[C@@H]1CC[C@@H]2O 8.63%, CCCc1nc2ccc(NC(C)=O)cc2c(=O)n1Cc1ccc(Cl)cc1 1.01%, Cc1nn(C)cc1CNC(=O)c1cnn2c(C(F)F)cc(C3CC3)nc12 10.2%, O=C(Nc1ccccc1F)c1ccc(COc2ccc(Cl)cc2Cl)o1 10.5%, COc1ccccc1NC(=O)COc1cccc2c1CCNC2=O 11.4%, COc1ccc(C(C#N)=Cc2cccc(OC)c2OC)cc1 4.09%, CCc1cc(=O)oc2c3c(cc(OCC(=O)Nc4cccnc4)c12)OC(C)(C)CC3 9.92%, Cc1cc(C)c2c(N)c(C(=O)NCC3CCCCC3)sc2n1 4.29%, C=CCn1c(SCC(=O)N2CCOCC2)nc2scc(-c3ccco3)c2c1=O 14.8%, COc1ccc(OC)c(S(=O)(=O)Nc2ccc(-c3ccc4nnc(C)n4n3)cc2)c1 10.5%, COc1ccc(S(=O)(=O)N2CCC[C@H]2C(=O)N2CCC[C@H]2C(=O)NCc2ccccn2)cc1C 0.306%, O=C(Nc1nnc(SCc2c(Cl)cccc2Cl)s1)C1CCCO1 (centres undefined) 7.19%, Cc1nc2cc(F)ccc2n1C1CCN(C(=O)c2ccc(F)cc2F)CC1 -0.482%, CC(C)CCNC(=O)NC(=O)COC(=O)C1CCN(S(=O)(=O)c2ccccc2F)CC1 -0.751%, Cc1nc(Cl)cc(N/N=C/c2ccc(O)cc2)n1 9.25%, Cc1cccc(Nc2nc(N)nc(CSC(=S)N3CCOCC3)n2)c1 3.18%, CCNC(=O)CCn1nc(-c2ccc(C)cc2)c2ccccc2c1=O -0.937%, CCC(C)Nc1nc2c(c(=O)[nH]c(=O)n2C)n1CCCc1ccccc1 (centres undefined) 2.03%, CCOc1ccc(-c2nc(CSc3nnc(C)s3)cs2)cc1OC 7.01%
